This list was built around the results that the source calls inconclusive (neither active nor inactive); the mix of calls is not that of the screen. For part of these data: Potencies beside an inconclusive call are fits to weak or partial responses and may not hold up. For part of these data: A note “side channel” means that the fit belongs to a control or component signal, not to the main read-out. The source made the active and inactive calls. Unless noted, calls come from the whole dose curve.
Key:
[1] = molecular target: Estrogen receptor (Homo sapiens) (UniProt P03372); assay: qHTS assay for small molecule antagonists of estrogen receptor alpha signaling (AID 588513; active = well fitted curve in the direction sought with a large enough effect in the signal ratio, with a control signal flat, not every such curve was filed as active; inconclusive = small, poorly fitted or top-dose-only effect, or effect the other way, or a change in a side signal; inactive = no such curve, though single readings can be large or run the other way; the % refers to the signal ratio; note: % is set by controls: 0 for no effect and ±100 for the full control effect); conditions: ER-alpha-UAS-bla HEK293, beta-lactamase ratio, antagonist mode; activity, negative = inhibition: at 76.9 µM (top of the series) unless noted
Procedure, shortened: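 ER-alpha-UAS-bla GripTite HEK 293 cells in medium with 2% charcoal/dextran-treated FBS were preincubated 4 h at 37 C, dosed with compound (1:2 titration), stimulated with 0.5nM 17-beta-estradiol for 18 h, then read by CCF4 beta-lactamase fluorescence.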

[2] = molecular target: Bile acid receptor (Homo sapiens) (UniProt Q96RI1); assay: qHTS assay for small molecule agonists of farnesoid X receptor signaling (AID 588527); conditions: HEK293T FXR-UAS-bla, beta-lactamase ratio, 16 h; activation: stronger effect = higher value; note: potency is the fitted concentration of half-maximal effect;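 for activation: 0% = vehicle basal and 100% = reference agonist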
Procedure, shortened: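 FXR-UAS-bla HEK293T, 10% dialyzed FBS; cpds up to 92 uM titration, 16 h 37 C; CCF4 dye 2 h RT; fluorescence. Normalized to chenodeoxycholic acid 100 uM (100%) and DMSO (0%); Hill fit gives EC50, efficacy.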

[3] = molecular target: Glucocorticoid receptor (Homo sapiens) (UniProt P04150); assay: qHTS assay for small molecule antagonists of glucocorticoid receptor signaling (AID 588533; active = well fitted inhibition curve with a large enough effect in the signal ratio, with a control signal flat, not every such curve was filed as active; inconclusive = small, poorly fitted or top-dose-only effect, or effect the other way, or a change in a side signal; the % refers to the signal ratio;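 note: cells stimulated with 2 nM dexamethasone as agonist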; note: potency is the fitted concentration of half-maximal effect; for activity change, negative = inhibition: % is set by controls: 0 for no effect and ±100 for the full control effect); conditions: HeLa MMTV-bla, GRE beta-lactamase ratio, antagonist mode, 18 h; activity change, negative = inhibition: at 76.8 µM (top of the series) unless noted
[4] = molecular target: Peroxisome proliferator-activated receptor delta (Homo sapiens) (UniProt Q03181); assay: qHTS assay for small molecule antagonists of peroxisome proliferator-activated receptor delta signaling (AID 588535; active = well fitted inhibition curve with a large enough effect in the signal ratio, with a control signal flat, not every such curve was filed as active; inconclusive = small, poorly fitted or top-dose-only effect, or effect the other way, or a change in a side signal; inactive = no such curve, though single readings can be large or run the other way; the % refers to the signal ratio; note: potency is the fitted concentration of half-maximal effect); conditions: HEK293T PPARd-UAS-bla, beta-lactamase FRET ratio, 18 h; activity change, negative = inhibition: at 76.7 µM (top of the series) unless noted
Procedure, shortened: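 GeneBLAzer PPAR-delta-UAS-bla HEK293T cells in medium with 2% charcoal/dextran FBS were preincubated 5 hrs at 37 C, then given compounds, incubated 18 hrs at 37 C, and read by CCF4 beta-lactamase fluorescence; IC50 from Hill fits.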

[5] = molecular target: Peroxisome proliferator-activated receptor gamma (Homo sapiens) (UniProt P37231); assay: qHTS assay for small molecule antagonists of peroxisome proliferator-activated receptor gamma signaling (AID 588537; active = well fitted inhibition curve with a large enough effect in the signal ratio, with a control signal flat, not every such curve was filed as active; inconclusive = small, poorly fitted or top-dose-only effect, or effect the other way, or a change in a side signal; the % refers to the signal ratio; note: potency is the fitted concentration of half-maximal effect;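 note: reporter cells co-stimulated with 50 nM rosiglitazone agonist during compound treatment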; for activity, negative = inhibition: % of control where 0% means no effect); conditions: HEK293 PPARg-UAS-bla, beta-lactamase ratio, antagonist mode; activity, negative = inhibition: at 76.8 µM (top of the series)
Procedure, shortened: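 PPAR-gamma-UAS-bla HEK293 cells (3000/well, 1% charcoal/dextran-stripped FBS) were preincubated 6-6.5 h at 37 C, given titrated compounds, then stimulated with 50 nM rosiglitazone for 16 h. Beta-lactamase activity was read with CCF4 dye; IC50 came from Hill fits.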

[6] = molecular target: Vitamin D3 receptor (Homo sapiens) (UniProt P11473); assay: qHTS assay for small molecule antagonists of vitamin D receptor signaling (AID 588541); conditions: HEK293T VDR-UAS-bla, beta-lactamase ratio, antagonist mode; activity change, negative = inhibition: at 76.7 µM (top of the series); note: potency is the fitted concentration of half-maximal effect
[7] = molecular target: Retinoic acid receptor RXR-alpha (Homo sapiens) (UniProt P19793); assay: qHTS assay for small molecule agonists of retinoid X receptor alpha signaling (AID 588544); conditions: HEK293T RXRa-UAS-bla, beta-lactamase reporter, 18 h; activation: at 76.7 µM (top of the series) unless noted; note: potency is the fitted concentration of half-maximal effect;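 for activation: 0% = DMSO basal wells and 100% = reference agonist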
[8] = molecular target: Thyroid hormone receptor beta (Homo sapiens) (UniProt P10828); assay: qHTS assay for small molecule agonists of thyroid hormone receptor beta signaling (AID 588545); conditions: TR-UAS-bla GripTite HEK 293, beta-lactamase ratio, agonist mode, 18 h; activation: at 76.7 µM, percent of T3 response, DMSO as zero; note: potency is the fitted concentration of half-maximal effect
Procedure, shortened: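 Beta-lactamase reporter activity under TR response element control is measured in HEK 293 cells after 18 hrs compound exposure. Signal is ratiometric CCF4 fluorescence, 460/530 nm.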

[9] = molecular target: Thyroid hormone receptor beta (Homo sapiens) (UniProt P10828); assay: qHTS assay for small molecule antagonists of thyroid hormone receptor beta signaling (AID 588547; active = well fitted inhibition curve with a large enough effect in the signal ratio, with a control signal flat, not every such curve was filed as active; inconclusive = small, poorly fitted or top-dose-only effect, or effect the other way, or a change in a side signal; the % refers to the signal ratio;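 note: cells stimulated with 0.4 nM T3 agonist during compound exposure; % is set by controls: 0 for no effect and ±100 for the full control effect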); conditions: TR-UAS-bla HEK293, beta-lactamase ratio, antagonist mode, 18 h
Procedure, shortened: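 TR-UAS-bla GripTite HEK293 cells in 2% charcoal/dextran FBS medium were preincubated 4 h at 37 C, given compound (0.59 nM to 92 uM) plus 0.4 nM T3 (final) for 18 h, then CCF4 for 2 h at RT; Hill fit gave IC50.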

[10] = qHTS assay for small molecule agonists of the antioxidant response element (ARE) signaling pathway (AID 651741; active = well fitted activation curve with a large enough effect in the signal ratio; inconclusive = small, poorly fitted or top-dose-only effect, or effect the other way, or a change in a side signal; the % refers to the signal ratio; note: potency is the fitted concentration of half-maximal effect); conditions: HepG2 ARE-bla reporter, beta-lactamase FRET ratio, 16 h; activation: at 96 µM (top of the series) unless noted
Procedure, shortened: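 ARE-bla HepG2 cells (beta-lactamase reporter under ARE control) were plated at 2,000 cells/well, preincubated 5 h at 37 C/5% CO2, then treated with DMSO-dissolved compounds for 16 h at 37 C; LiveBLAzer B/G FRET substrate added, fluorescence read after 2 h at room temperature.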

[11] = qHTS assay for small molecule activators of the nuclear factor-kappa B (NF-kB) signaling pathway (AID 651749; active = well fitted activation curve with a large enough effect in the signal ratio; inconclusive = small, poorly fitted or top-dose-only effect, or a change in a side signal; the % refers to the signal ratio; note: potency is the fitted concentration of half-maximal effect); conditions: NF-kB-bla ME-180 cells, beta-lactamase FRET ratio, 16 h; activation: stronger effect = higher value
Procedure, shortened: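 ME-180 cells stably carrying a beta-lactamase reporter under an NF-kB response element were exposed to compound or DMSO vehicle for 16 hr at 37C, 5% CO2. Pathway activation was read by FRET, since reporter expression disrupts FRET.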

[12] = molecular target: Peroxisome proliferator-activated receptor alpha (Homo sapiens) (UniProt Q07869); assay: qHTS assay for small molecule agonists of the peroxisome proliferator-activated receptor alpha (PPARalpha) signaling pathway (AID 651778; active = well fitted curve in the direction sought with a large enough effect; inconclusive = small, poorly fitted or top-dose-only effect, or another doubt; inactive = no such curve, though single readings can be large; an effect the other way counts as inactive or inconclusive; note: potency is the fitted concentration of half-maximal effect); conditions: PathHunter PPARalpha complementation, chemiluminescence, 6 h; max response: stronger effect = higher value
Procedure, shortened: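 Cells plated at 2,000/well and held overnight at 37 C, 5% CO2, then compound added by pin tool for 6 hr; after PathHunter detection reagent and 60 min at room temperature, chemiluminescence from enzyme complementation was read.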

[13] = qHTS assay for cell viability of the p53RE-bla HCT-116 cell line (AID 743292; active = well fitted curve in the direction sought with a large enough effect; inconclusive = small, poorly fitted or top-dose-only effect, or another doubt; inactive = no such curve, though single readings can be large; an effect the other way counts as inactive or inconclusive; note: potency is the fitted concentration of half-maximal effect; nearly all actives have a fitted effect of over 55% in size)
Procedure, shortened: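 HCT-116 p53RE-bla cells seeded 4,000/well; 5 h at 37 C; compound (DMSO) added; 16 h at 37 C; CellTiter-Glo added, 30 min RT; luminescence read.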

[14] = molecular target: Retinoic acid receptor RXR-alpha (Homo sapiens) (UniProt P19793); assay: qHTS assay for small molecule antagonists of retinoid X receptor alpha signaling (AID 588546; active = well fitted inhibition curve with a large enough effect in the signal ratio, with a control signal flat, not every such curve was filed as active; inconclusive = small, poorly fitted or top-dose-only effect, or effect the other way, or a change in a side signal; inactive = no such curve, though single readings can be large or run the other way; the % refers to the signal ratio; note: potency is the fitted concentration of half-maximal effect;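 for max response: cells stimulated with 9-cis-retinoic acid as agonist; % is set by controls: 0 for no effect and ±100 for the full control effect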); conditions: HEK293T RXRa-UAS-bla, beta-lactamase ratio, antagonist mode
Procedure, shortened: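 Beta-lactamase reporter inhibition, read as CCF4 fluorescence ratio (ex 405, em 460/530 nm) after 2 h at RT. HEK293T UAS-bla cells, 2500/well, were stimulated with 9-cis-RA at 500 or 100 nM final alongside test compound for 18 h at 37 C.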

[15] = molecular target: Bile acid receptor (Homo sapiens) (UniProt Q96RI1); assay: qHTS assay for small molecule antagonists of farnesoid X receptor signaling (AID 588526); conditions: HEK293T FXR-UAS-bla, beta-lactamase ratio, antagonist mode; activity change, negative = inhibition: at 76.7 µM (top of the series); note: potency is the fitted concentration of half-maximal effect
Procedure, shortened: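 Concentration-response titrations were fitted to the Hill equation for half-maximal inhibition and maximal response, with data normalised to 50 uM chenodeoxycholic acid and DMSO control wells. Cells: FXR-UAS-bla HEK293T, dialyzed FBS.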

[16] = molecular target: Peroxisome proliferator-activated receptor delta (Homo sapiens) (UniProt Q03181); assay: qHTS assay for small molecule agonists of peroxisome proliferator-activated receptor delta signaling (AID 588534); conditions: HEK293T PPARdelta-UAS-bla, beta-lactamase ratio, 18 h; activation: at 76.7 µM (top of the series); note: potency is the fitted concentration of half-maximal effect
Procedure, shortened: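 Cell-based beta-lactamase reporter assay run in agonist mode: cells seeded and incubated 5 hrs at 37 C, compounds added and incubated 18 hrs at 37 C. CCF4 dye fluorescence read after 2 hrs at RT; EC50 and efficacy from Hill fits.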

[17] = molecular target: Peroxisome proliferator-activated receptor gamma (Homo sapiens) (UniProt P37231); assay: qHTS assay for small molecule agonists of peroxisome proliferator-activated receptor gamma signaling (AID 588536; active = well fitted curve in the direction sought with a large enough effect in the signal ratio, with a control signal flat, not every such curve was filed as active; inconclusive = small, poorly fitted or top-dose-only effect, or effect the other way, or a change in a side signal; inactive = no such curve, though single readings can be large or run the other way; the % refers to the signal ratio; note: potency is the fitted concentration of half-maximal effect;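 for activation: 0% = DMSO basal wells and 100% = rosiglitazone at 2 µM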); conditions: HEK293 PPARg-UAS-bla, beta-lactamase ratio, 16 h; activation: at 76.7 µM (top of the series), percent of rosiglitazone response, DMSO as zero unless noted
Procedure, shortened: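 PPAR-gamma-UAS-bla HEK293 cells in medium with 1% charcoal/dextran-treated FBS were exposed to compounds for 16 h at 37 C. Beta-lactamase activity was read with CCF4 substrate (405 nm excitation, 460/530 nm emission).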

[18] = qHTS assay for small molecule agonists of the antioxidant response element (ARE) signaling pathway measured by Nrf2-dependant transcriptional activity (AID 720636; active = well fitted curve in the direction sought with a large enough effect in the repeat runs; inconclusive = weak or mixed curves; inactive = no such curve, though single readings can be large; an effect the other way counts as inactive or inconclusive; note: potency is the fitted concentration of half-maximal effect)
Procedure, shortened: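 Cells: ARE-luc HepG2 with Nrf2-responsive luciferase. Medium contained 1% dialyzed FBS. Compound exposure lasted 16 hr at 37 C and 5% CO2, followed by ONE-Glo luciferase detection.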
Tags give direction and shape of the fitted curve or compound fluorescence and quenching.

UniProt P03372, sequence (P03372 whole entry, looked up): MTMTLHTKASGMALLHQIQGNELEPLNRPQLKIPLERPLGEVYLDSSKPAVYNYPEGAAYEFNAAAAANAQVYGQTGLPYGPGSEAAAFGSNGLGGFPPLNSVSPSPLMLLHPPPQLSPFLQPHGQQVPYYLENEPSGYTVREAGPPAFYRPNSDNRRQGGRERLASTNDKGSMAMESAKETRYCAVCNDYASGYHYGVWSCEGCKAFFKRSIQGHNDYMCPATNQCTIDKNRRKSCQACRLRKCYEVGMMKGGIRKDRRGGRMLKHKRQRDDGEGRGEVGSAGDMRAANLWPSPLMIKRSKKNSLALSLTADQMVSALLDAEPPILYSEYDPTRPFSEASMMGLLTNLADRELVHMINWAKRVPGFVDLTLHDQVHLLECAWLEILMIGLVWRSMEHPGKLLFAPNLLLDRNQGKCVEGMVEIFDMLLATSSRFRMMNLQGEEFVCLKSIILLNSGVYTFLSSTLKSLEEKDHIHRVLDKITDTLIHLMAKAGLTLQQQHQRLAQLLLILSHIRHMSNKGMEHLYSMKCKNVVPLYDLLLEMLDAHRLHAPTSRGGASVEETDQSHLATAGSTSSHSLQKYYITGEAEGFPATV
UniProt P10828, sequence (P10828 whole entry, looked up): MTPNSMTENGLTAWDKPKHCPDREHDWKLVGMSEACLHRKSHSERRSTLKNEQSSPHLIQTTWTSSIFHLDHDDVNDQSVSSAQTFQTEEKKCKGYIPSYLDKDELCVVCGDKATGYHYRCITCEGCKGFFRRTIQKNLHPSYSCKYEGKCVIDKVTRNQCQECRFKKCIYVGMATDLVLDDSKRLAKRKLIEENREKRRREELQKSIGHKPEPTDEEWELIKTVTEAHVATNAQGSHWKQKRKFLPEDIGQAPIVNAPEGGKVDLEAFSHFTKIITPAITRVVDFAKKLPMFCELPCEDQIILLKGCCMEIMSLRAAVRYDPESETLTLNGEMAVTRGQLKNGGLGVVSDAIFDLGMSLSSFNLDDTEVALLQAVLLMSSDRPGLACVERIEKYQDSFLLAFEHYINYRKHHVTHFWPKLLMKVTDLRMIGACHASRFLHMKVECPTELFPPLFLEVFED
UniProt Q03181, sequence (Q03181 whole entry, looked up): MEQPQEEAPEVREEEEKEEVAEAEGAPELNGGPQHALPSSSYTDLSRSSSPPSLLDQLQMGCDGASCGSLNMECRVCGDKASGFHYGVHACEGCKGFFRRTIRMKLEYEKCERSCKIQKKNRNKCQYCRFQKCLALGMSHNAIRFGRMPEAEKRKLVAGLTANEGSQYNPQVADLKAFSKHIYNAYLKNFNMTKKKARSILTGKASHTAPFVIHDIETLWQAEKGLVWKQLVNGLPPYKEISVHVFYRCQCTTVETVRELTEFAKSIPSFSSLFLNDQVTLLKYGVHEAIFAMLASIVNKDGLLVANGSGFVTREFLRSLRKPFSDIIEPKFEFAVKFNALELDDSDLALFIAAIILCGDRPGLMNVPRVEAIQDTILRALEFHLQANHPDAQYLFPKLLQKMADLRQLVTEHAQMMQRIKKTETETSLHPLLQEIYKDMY
UniProt P19793, sequence (P19793 whole entry, looked up): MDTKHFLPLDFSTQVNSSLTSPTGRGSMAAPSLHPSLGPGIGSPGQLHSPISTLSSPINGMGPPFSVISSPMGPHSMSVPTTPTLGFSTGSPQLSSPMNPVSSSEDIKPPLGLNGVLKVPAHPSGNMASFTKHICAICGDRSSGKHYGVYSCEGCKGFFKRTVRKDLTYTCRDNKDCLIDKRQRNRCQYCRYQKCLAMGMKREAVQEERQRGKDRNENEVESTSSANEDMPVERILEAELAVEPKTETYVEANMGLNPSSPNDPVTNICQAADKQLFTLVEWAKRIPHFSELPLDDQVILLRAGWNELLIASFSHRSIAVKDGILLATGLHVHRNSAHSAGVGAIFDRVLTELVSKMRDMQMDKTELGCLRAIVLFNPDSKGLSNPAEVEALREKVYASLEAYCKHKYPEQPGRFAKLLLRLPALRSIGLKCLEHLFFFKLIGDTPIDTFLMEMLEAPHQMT
UniProt Q07869, sequence (Q07869 whole entry, looked up): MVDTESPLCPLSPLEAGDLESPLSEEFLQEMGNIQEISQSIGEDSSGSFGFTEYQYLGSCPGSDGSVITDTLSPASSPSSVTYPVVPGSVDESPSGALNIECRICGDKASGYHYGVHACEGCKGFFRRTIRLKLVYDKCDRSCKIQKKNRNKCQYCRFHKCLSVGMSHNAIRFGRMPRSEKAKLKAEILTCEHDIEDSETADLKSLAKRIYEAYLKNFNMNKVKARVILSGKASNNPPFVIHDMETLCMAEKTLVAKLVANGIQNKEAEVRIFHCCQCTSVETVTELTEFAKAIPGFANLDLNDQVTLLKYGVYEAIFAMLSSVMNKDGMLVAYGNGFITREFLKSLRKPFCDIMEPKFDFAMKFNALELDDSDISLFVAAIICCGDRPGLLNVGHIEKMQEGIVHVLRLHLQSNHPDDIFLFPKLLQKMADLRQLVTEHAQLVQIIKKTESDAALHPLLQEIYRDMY

CCC(C)(C)c1ccc(O)c(C(C)(C)CC)c1
inconclusive: activity, negative = inhibition [1] -136% | activation [2] 16.2% | Potency [3] 15.8 µM [activator, full curve, poor fit] | activity, negative = inhibition [5] -34% | Potency [6] 50.1 µM [inhibitor, single point] | activation [7] 30.8% | Potency [8] 44.7 µM [side channel, falling, partial curve, poor fit] | activity change % (negative = inhibition) [9] -36.4% [inhibitor] | Potency [11] 50.1 µM [cytotoxic, side channel, single point] | Potency [13] 44.7 µM [cytotoxic, single point]
inactive: Potency [4]
active: Potency [10] 61.1 µM | Potency [12] 35.5 µM

Clc1ccc(C(Cl)(Cl)Cl)cc1
inconclusive: Potency [10] 34.4 µM [activator, partial curve]
inactive: Potency [1] | Potency [3] | max response [14] -3.2%

O=S(=O)(c1ccc(Cl)cc1)c1cc(Cl)c(Cl)cc1Cl
inconclusive: activity, negative = inhibition [1] -32.6% | Potency [15] 50.1 µM [side channel, rising, single point] | Potency [16] 39.8 µM [side channel, rising, single point] | Potency [4] 39.8 µM [side channel, rising, partial curve, poor fit] | Potency [17] 44.7 µM [side channel, rising, single point] | Potency [5] 44.7 µM [side channel, rising, partial curve] | Potency [7] 14.1 µM [inhibitor, full curve] | Potency [14] 15.8 µM [inhibitor, full curve, poor fit]
active: Potency [10] 27.3 µM

Cc1cccc2sc3nncn3c12
active: Potency [10] 2.73 µM
inconclusive: activity, negative = inhibition [1] -38% | activity, negative = inhibition [5] 11.2% | Potency [18] 48.6 µM [activator, partial curve, poor fit]
inactive: Potency [15]

CCSCCSP(=O)(OC)OC
inconclusive: activity, negative = inhibition [1] 33.3% | Potency [2] 1.3 nM | Potency [6] 25.1 µM [activator, partial curve]
inactive: Potency [4] | Potency [17] | Potency [5] | max response [14] -0.524% | activity change % (negative = inhibition) [9] 4.21%

Source: PubChem BioAssay (NCATS)
